# The other results are listed elsewhere or left out. Further columns of the screen follow, without active or inactive calls. Compounds called inactive in the main read-out are mostly missing here.
# Experiment: qHTS Assay for Lipid Storage Modulators (AID 1519)
# Conditions: Drosophila S3 cells, BODIPY lipid droplet/cell ratio, laser cytometry; measured here: lipid channel max response; cells loaded with oleic acid
# Method in brief: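 Cells seeded at 5,000 per well were treated with compounds over a concentration series and loaded with oleic acid (400 uM, as added). Lipid droplet fluorescence (488 nm excitation, 500-530 nm channel) was read by laser-scanning cytometry and normalized to 20 uM Triacsin C.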
row,Compound,max response [%]
1,COc1cccc(Nc2ncc3nc(-c4cccs4)c(=O)n(CCC#N)c3n2)c1,-46.4
2,COc1cccc(-c2nc(N(C)Cc3ccco3)c3ccccc3n2)c1,25.1
3,COc1cccc(Cn2c(=O)c(CCc3ccccc3)nc3cnc(N(C)C)nc32)c1,30.5
4,CCNc1ncc2nc(-c3cccc(C#N)c3)c(=O)n(CCC#N)c2n1,-31.6
5,CN(C)C(=O)c1ccc(-c2nc(-n3ccnc3)c3ccccc3n2)cc1,38.9
6,Cc1c(-c2ccc(O)cc2)nn(-c2ccc(O)cc2)c1-c1ccc(OCCN2CCCCC2)cc1,97.2
7,COc1cccc(-c2cncnc2NCCc2c[nH]c3ccc(OC)cc23)c1,41
8,COc1ccc2[nH]cc(CC(N)C(=O)O)c2c1 (stereo not given),144
9,FC(F)(F)c1ccccc1-c1nc(NC2CC2)c2ccccc2n1,37.9
10,CN(C)c1ccc(-c2nc(NCCc3cnc[nH]3)c3ccccc3n2)cc1,28.9
11,CC(=O)OC1CCC2(C)C3CCC4(C)C(CC5CCCCC54C(C)=O)C3CC(=O)[C@@]2(O)C1 (stereo not given in full),75.9
12,CCCCCCCCCCCCC(=O)N1CCCC[C@H]1CNC(=O)[C@@H](N)CCCCN,132
13,CCCn1c(=O)c2[nH]c(-c3ccccc3)nc2n(CCC)c1=O,99.9
14,CC(=O)NCCNc1nc(-c2ccc3c(c2)OCO3)nc2ccccc12,43.6
15,COc1ccc(-c2nc3cnc(OC)nc3n(Cc3cccs3)c2=O)cc1,52
16,COc1cc2c(cc1OC)C1C(=O)c3ccc4c(c3OC1CO2)C=CC(C)(C)O4 (stereo not given),-90.5
17,CN(Cc1ccco1)c1ncnc2ccc(-c3ccccc3C#N)cc12,34.1
18,COc1ccccc1CNc1cc(-c2ccccc2C)ncn1,19
19,COc1ccc(-c2nc3cnc(N4CCOCC4)nc3n(Cc3cccs3)c2=O)cc1,33.9
20,COc1c2ccoc2nc2c(OC)c(OCC(O)C(C)(C)O)ccc12 (stereo not given),177

row,Compound,max response [%]
1,NC[C@@H]1O[C@H](c2ccccc2)Cc2c1ccc(O)c2O,83.8
2,CC(=O)[C@@H]1[C@H]2[C@H](C(=O)[C@H]3OC[C@@H]2O3)[C@H]2C=Cc3ccccc3N21,89.5
3,COc1ncc2nc(-c3ccccc3)c(=O)n(CCC#N)c2n1,52
4,O=C(O)C1CN(CCCP(=O)(O)O)CCN1 (stereo not given),-54.9
5,CCOC(=O)c1ccc(OC(=O)CCCCCN=C(N)N)cc1,53.1
6,c1ccc2sc(N3CCN(Cc4ccc5c(c4)OCO5)CC3)nc2c1,104
7,COC(=O)Nc1ccc2[nH]cc(CCNC(C)=O)c2c1,66.2
8,C=CC1=C(C)C2=Cc3c(C=C)c(C)c4[n]3[Sn+2][n]3c(c(C)c(CCC(=O)O)c3=CC3=NC(=C4)C(C)=C3CCC(=O)O)=CC1=N2,81.4
9,COc1ccc2[nH]cc(CCNc3ncncc3-c3ccc(C(=O)N(C)C)cc3)c2c1,25.3
10,CN(C)C(=O)c1ccc(-c2cncnc2NCc2cccnc2)cc1,47.4
11,C=CC(C)(C)c1[nH]c2ccccc2c1C1=C(O)C(=O)C(c2c[nH]c3c(CC=C(C)C)cccc23)=C(O)C1=O,79.6
12,CC(C)=CCc1c2c(c3occ(-c4ccc(O)c(O)c4)c(=O)c3c1O)C=CC(C)(C)O2,-77.8
13,O=c1cc(-c2ccc(O)cc2)oc2cccc(O)c12,103
14,O=c1c(-c2ccc(Cl)cc2)nc2cnc(N3CCOCC3)nc2n1Cc1ccc(F)cc1,36
15,COc1ccc(Oc2ncc3nc(-c4ccc(Cl)cc4)c(=O)n(C)c3n2)cc1,32.4
16,Fc1ccc(Nc2nc(-c3ccoc3)nc3ccccc23)cc1,0.696
17,O=C1c2ccccc2C(=O)c2c1ccc(O)c2O,129
18,COC(=O)N1CCC2(CC1)CCN(c1ncccn1)CC2,43.5
19,N#CCCn1c(=O)c(-c2cccs2)nc2cnc(Nc3ccccc3)nc21,-45.4
20,COc1cccc(-c2cc(NCc3ccccc3OC)ncn2)c1,-5.38

# — PubChem BioAssay (NCATS)
